According to the supplement of paper PMC12217912:
The list shows a part of the results. The full chains were built here from the parent and the listed change. Values near 0.05 are background.

B1: TEV protease; numbered along this chain (parent)
chain: MGESLFKGPRDYNPISSSICHLTNESDGHTTSLYGIGFGPFIITNKHLFRRNNGTLVVQSLHGVFKVKDTTTLQQHLVDGRDMIIIRMPKDFPPFPQKLKFREPQREERICLVTTNFQTKSMSSMVSDTSCTFPSGDGIFWKHWIQTKDGQCGSPLVSTRDGFIVGIHSASNFTNTNNYFTSVPKNFMELLTNQEAQQWVSGWRLNADSVLWGGHKVFMVKPEEPFQPVKEATQL

Variants of: B1
Assay: raw area under fraction-flipped curve 0-4 h after induction (AUC4h, not background-subtracted), DNA-recorder readout of cleavage of the substrate (dimensionless); higher = more cleavage of the substrate by the protease variant
Settings: temperature: 34 °C; time window: 0-4 h after rhamnose induction
Experimental: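 In vivo DNA recorder in E. coli TOP10(DE3) ΔrhaA at 34 °C. Each TEVp single-site mutant (parent TEVp 0) is paired with a single-site variant of the 7-mer TEVs (canonical ENLYFQ|S). The substrate sits between flexible linkers in a Bxb1-sfGFP-TEVs-SsrA fusion, so cleavage stabilises Bxb1 and speeds flipping of a recombination array, read by NGS. The value is the raw area under the fraction-flipped curve over 0-4 h after rhamnose induction (AUC4h), with ≥20 reads per time point. It is not background-subtracted; inactive controls average about 0.047.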
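Note: Bxb1 expression induced with 0.2% (w/v) L-rhamnose at OD600 near 0.5, cultures sampled hourly, flipped fraction per protease–substrate barcode pair counted by paired-end Illumina sequencing.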

| Variant | area with substrate EALYFQS | area with substrate ECLYFQS | area with substrate EDLYFQS | area with substrate EELYFQS | area with substrate EFLYFQS | area with substrate EGLYFQS | area with substrate EHLYFQS | area with substrate EILYFQS | area with substrate EKLYFQS | area with substrate ELLYFQS | area with substrate EMLYFQS | area with substrate EPLYFQS | area with substrate EQLYFQS | area with substrate ERLYFQS | area with substrate ESLYFQS | area with substrate EVLYFQS | area with substrate EWLYFQS | area with substrate ETLYFQS | area with substrate EYLYFQS |
| --- | --- | --- | --- | --- | --- | --- | --- | --- | --- | --- | --- | --- | --- | --- | --- | --- | --- | --- | --- |
| S4D | 0.152 | 0.126 | 0.147 | 0.154 | 0.121 | 0.133 | 0.0615 | 0.108 | 0.116 | 0.209 | 0.114 | 0.173 | 0.156 | 0.126 | 0.122 | 0.121 | 0.11 | – | – |
| L5E | 0.17 | 0.107 | 0.169 | 0.14 | 0.136 | 0.0942 | – | 0.0875 | 0.11 | 0.0895 | – | – | 0.114 | 0.117 | 0.0451 | 0.098 | 0.133 | 0.111 | – |
| G8D | 0.0967 | 0.0573 | – | – | – | 0.0881 | – | – | – | – | – | 0.148 | 0.111 | – | 0.113 | – | – | – | – |
| G8F | 0.18 | – | 0.124 | – | – | – | – | 0.0706 | – | – | – | – | – | – | – | – | 0.0754 | – | – |
| G8K | 0.0982 | – | – | – | 0.121 | 0.0553 | – | 0.0907 | 0.108 | – | – | – | – | 0.122 | 0.107 | – | – | – | – |
| G8P | 0.0819 | 0.109 | 0.138 | – | – | 0.118 | 0.0829 | – | 0.131 | 0.1 | – | 0.118 | 0.107 | 0.0948 | 0.138 | – | – | – | – |
| G8S | 0.0969 | 0.0946 | 0.0691 | – | – | – | 0.0859 | – | 0.132 | – | – | – | 0.106 | – | 0.102 | 0.0836 | – | – | – |
| R10K | 0.109 | 0.104 | 0.114 | 0.0904 | 0.0731 | 0.0899 | 0.102 | 0.0797 | 0.0641 | 0.104 | 0.0839 | – | 0.104 | 0.0729 | 0.102 | 0.0985 | 0.0904 | 0.0907 | – |
| R10S | 0.114 | 0.128 | 0.1 | 0.119 | 0.0867 | 0.0999 | 0.0927 | 0.0833 | 0.0899 | 0.108 | 0.112 | 0.108 | – | – | 0.0999 | 0.102 | 0.102 | 0.166 | 0.0792 |
| D11W | 0.114 | 0.0995 | 0.136 | 0.136 | 0.11 | 0.0991 | 0.0777 | 0.103 | 0.0978 | 0.104 | 0.104 | 0.113 | 0.0989 | 0.07 | 0.0812 | 0.105 | 0.0776 | 0.145 | 0.108 |
| N13S | 0.115 | 0.0897 | 0.129 | 0.167 | 0.104 | 0.0912 | 0.11 | 0.0583 | 0.105 | 0.0843 | 0.0984 | 0.191 | 0.0967 | – | 0.0892 | 0.102 | 0.0861 | 0.102 | 0.0734 |
| N13T | 0.0795 | 0.0974 | 0.145 | 0.126 | 0.112 | 0.125 | 0.128 | 0.113 | 0.0642 | 0.0864 | 0.142 | – | – | 0.108 | 0.124 | 0.0999 | 0.0987 | 0.116 | 0.109 |
| N13V | 0.093 | 0.104 | 0.12 | 0.118 | 0.0843 | 0.0968 | 0.103 | 0.0907 | 0.153 | 0.0934 | 0.111 | 0.0949 | 0.129 | 0.104 | 0.0957 | 0.1 | 0.0791 | 0.126 | 0.102 |
